Test results as given in the antibiotic and cytotoxicity screens of Wong et al. (2023).
This is one part of the list.

Tests used:
HSkMC = human skeletal muscle cells; assay: cytotoxicity call (relative viability < 0.9); details: 10 µM
S. aureus RN4220 = assay: growth inhibition call (relative growth <= 0.2); details: 50 µM

Cc1noc(C)c1S(=O)(=O)N(C)C[C@@H]1OCCCC[C@@H](C)Oc2ccc(NS(C)(=O)=O)cc2C(=O)N([C@H](C)CO)C[C@H]1C
cytotoxicity call (HSkMC): inactive | growth inhibition call (S. aureus RN4220): inactive

N[C@H]1CCCN(Cc2cccc(O)c2)C1
cytotoxicity call (HSkMC): inactive | growth inhibition call (S. aureus RN4220): inactive

C[C@@H]1CN([C@@H](C)CO)C(=O)CCCn2cc(nn2)CO[C@@H]1CN(C)S(=O)(=O)c1ccc(-n2cccn2)cc1
cytotoxicity call (HSkMC): inactive | growth inhibition call (S. aureus RN4220): inactive

COc1ccc2c(=O)cc(-c3ccccc3OC)oc2c1
cytotoxicity call (HSkMC): inactive | growth inhibition call (S. aureus RN4220): inactive

C[C@H]1CN([C@@H](C)CO)C(=O)c2cc(NS(=O)(=O)c3ccc(Cl)cc3)ccc2O[C@H]1CN(C)Cc1ccc(C(F)(F)F)cc1
cytotoxicity call (HSkMC): inactive | growth inhibition call (S. aureus RN4220): inactive

C[C@@H]1CCCCO[C@@H](CN(C)C(=O)CCCN(C)C)[C@@H](C)CN([C@H](C)CO)C(=O)c2cc(NS(C)(=O)=O)ccc2O1
cytotoxicity call (HSkMC): inactive | growth inhibition call (S. aureus RN4220): inactive

C[C@@H]1CCCCO[C@@H](CN(C)C(=O)Nc2cccc3ccccc23)[C@@H](C)CN([C@H](C)CO)C(=O)c2cc(NS(=O)(=O)c3cccs3)ccc2O1
cytotoxicity call (HSkMC): inactive | growth inhibition call (S. aureus RN4220): inactive

COc1ccc([Si](C)(C)[C@@H]2[C@@H](CC(=O)N3CCC[C@H]3CO)O[C@]3(C(=O)N(Cc4cccc(N5C(=O)c6cccc7cccc5c67)c4)c4ccccc43)[C@H]2C)cc1
cytotoxicity call (HSkMC): inactive | growth inhibition call (S. aureus RN4220): inactive

O=C1N[C@H](Cc2c[nH]c3ccccc23)COC(=O)[C@@H](Cc2ccc(F)cc2)CC=CC[C@@H]1CC(=O)N(CCO)Cc1ccccc1
cytotoxicity call (HSkMC): inactive | growth inhibition call (S. aureus RN4220): inactive

CC(C)OC(=O)[C@H](C)N[P@](=O)(OC[C@H]1O[C@@H](n2ccc(=O)[nH]c2=O)[C@@](C)(O)[C@@H]1O)Oc1ccccc1
cytotoxicity call (HSkMC): inactive | growth inhibition call (S. aureus RN4220): inactive

CS(=O)(=O)N1C[C@H]2CN(Cc3ccncc3)C(=O)[C@@H]2C1
cytotoxicity call (HSkMC): inactive | growth inhibition call (S. aureus RN4220): inactive

Cc1noc(C)c1NC(=O)N[C@H]1C=C[C@@H](CC(=O)NCCCN(C)C)O[C@H]1CO
cytotoxicity call (HSkMC): inactive | growth inhibition call (S. aureus RN4220): inactive

C[C@H]1CCCCO[C@H](CN(C)CC2CCCCC2)[C@@H](C)CN([C@@H](C)CO)C(=O)c2cc(NS(=O)(=O)c3ccc(Cl)cc3)ccc2O1
cytotoxicity call (HSkMC): inactive | growth inhibition call (S. aureus RN4220): inactive

COc1ccc(CN(C)C[C@H]2OCCCC[C@H](C)Oc3ccc(NS(=O)(=O)c4ccc(OC)cc4)cc3C(=O)N([C@@H](C)CO)C[C@@H]2C)cc1
cytotoxicity call (HSkMC): inactive | growth inhibition call (S. aureus RN4220): inactive

C[C@@H]1CN([C@@H](C)CO)C(=O)c2cc(NC(=O)CCC(F)(F)F)ccc2O[C@@H]1CN(C)Cc1ccc(-c2ccccc2)cc1
cytotoxicity call (HSkMC): inactive | growth inhibition call (S. aureus RN4220): inactive

O=C1O[C@H](c2ccccc2)[C@H](c2ccccc2)N2[C@H]1[C@@H](C(=O)N1CCN(c3ncccn3)CC1)[C@]1(C(=O)Nc3ccc(C#CC4(O)CCCCCC4)cc31)[C@H]2c1ccc(OCCO)cc1
cytotoxicity call (HSkMC): inactive | growth inhibition call (S. aureus RN4220): inactive

C=CCOC(=O)[C@H]1[C@@H]2C(=O)O[C@@H](c3ccccc3)[C@@H](c3ccccc3)N2[C@@H](c2ccc(OCCOC(=O)[C@H]3C[C@H]4C(=O)NCC(=O)N4[C@H]3c3cccc(OCCO)c3)cc2)[C@]12C(=O)Nc1ccc(I)cc12
cytotoxicity call (HSkMC): inactive | growth inhibition call (S. aureus RN4220): inactive

C[C@H]1CN([C@@H](C)CO)C(=O)c2cccc(NC(=O)Nc3ccc(C(F)(F)F)cc3)c2O[C@H]1CN(C)Cc1ccc(-c2ccccc2)cc1
cytotoxicity call (HSkMC): inactive | growth inhibition call (S. aureus RN4220): inactive

O=C(CS)NCCCCCCNC(=O)[C@@H]1C[C@@H]2C(=O)N3CCC[C@H]3C(=O)N2[C@@H]1c1cccc(OCCO)c1
cytotoxicity call (HSkMC): inactive | growth inhibition call (S. aureus RN4220): inactive

COc1ccc(NC(=O)Nc2ccc3c(c2)C(=O)N([C@H](C)CO)C[C@@H](C)[C@H](CN(C)Cc2ccc4c(c2)OCO4)OCCCC[C@@H](C)O3)cc1
cytotoxicity call (HSkMC): inactive | growth inhibition call (S. aureus RN4220): inactive

CN(C)c1nc2c([nH]1)c(=O)[nH]c(=O)n2C
cytotoxicity call (HSkMC): inactive | growth inhibition call (S. aureus RN4220): inactive

O=C(C[C@@H]1C[C@@H]2c3cc(NS(=O)(=O)c4ccc(F)cc4)ccc3O[C@@H]2[C@@H](CO)O1)NCc1ccc(Oc2ccccc2)cc1
cytotoxicity call (HSkMC): inactive | growth inhibition call (S. aureus RN4220): inactive

C[C@@H]1CN([C@H](C)CO)C(=O)c2cc(C#CCc3ccccc3)cnc2O[C@H]1CN(C)C(=O)Cc1cccnc1
cytotoxicity call (HSkMC): inactive | growth inhibition call (S. aureus RN4220): inactive

CCCN(C)C[C@H]1OCCCC[C@@H](C)Oc2ccc(NC(=O)Cc3ccccc3)cc2C(=O)N([C@H](C)CO)C[C@H]1C
cytotoxicity call (HSkMC): inactive | growth inhibition call (S. aureus RN4220): inactive

C[C@@H]1CCCCO[C@@H](CN(C)C(=O)Nc2ccc(C(F)(F)F)cc2)[C@H](C)CN([C@@H](C)CO)C(=O)c2cc(NC(=O)Nc3ccc4c(c3)OCO4)ccc2O1
cytotoxicity call (HSkMC): inactive | growth inhibition call (S. aureus RN4220): inactive

COc1ccc(S(=O)(=O)Nc2ccc3c(c2)C(=O)N([C@H](C)CO)C[C@@H](C)[C@H](CN(C)Cc2ccccc2)OCCCC[C@@H](C)O3)cc1
cytotoxicity call (HSkMC): inactive | growth inhibition call (S. aureus RN4220): inactive

C[C@H](CO)N1C[C@H](C)[C@H](CN(C)C(=O)Nc2ccc(F)cc2)Oc2ccc(NC(=O)CCN3CCOCC3)cc2CC1=O
cytotoxicity call (HSkMC): inactive | growth inhibition call (S. aureus RN4220): inactive

O=C(O)CC[C@H]1CCCCN1
cytotoxicity call (HSkMC): inactive | growth inhibition call (S. aureus RN4220): inactive

COCC(=O)N(C)C[C@H]1Oc2cc(C#C[C@@H](C)O)ccc2S(=O)(=O)N([C@@H](C)CO)C[C@H]1C
cytotoxicity call (HSkMC): inactive | growth inhibition call (S. aureus RN4220): inactive
